Data as given in PubChem BioAssay AID1345082 (National Center for Advancing Translational Sciences (NCATS), 2018).
Screen size: about 94,000 compounds; about 4,000 (4.3%) were called active. The inconclusive results got no clear call from the source; some entries with a clear call stand among them for comparison. The call rests on the fitted dose curve; in most records, active means well fitted inhibition curve with a large enough effect; inconclusive means small, poorly fitted or top-dose-only effect; inactive means no such curve, though single readings can be large or run the other way. Potencies of inconclusive entries are doubtful fits and often do not repeat.

test: Cytotoxic Profiling in NIH 3T3 Cell Line of Diverse Libraries Using Quantitative High-Throughput Screening; settings: NIH 3T3 viability, CellTiter-Glo ATP luminescence, 48-72 h; series mostly up to 96.7 µM; further: nearly all actives have a fitted effect of over 55% in size
Method in brief: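 Cells were seeded at 400 per well, treated with pin-transferred compound, and kept 48 or 72 hr at 37 °C before CellTiter-Glo addition and luminescence imaging of cellular ATP.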
Potency means the concentration at half of the fitted maximal effect; tags describe the fitted curve by direction and shape.

| SMILES | Potency |
| --- | --- |
| COc1ccc(NC(=O)N2[C@H]3CC[C@@H]2c2cncnc2C3)c(C)c1 | inactive |
| C=C[C@H]1CN2CC[C@H]1C[C@@H]2CNC(=O)CC(C)(C)C | inactive |
| COc1ccc(-c2cc([C@H]3CN4CC[C@H]3C[C@@H]4CNCc3ccccn3)n(C)n2)cc1 | inconclusive: 56.2 µM [inhibitor, full curve] |
| O=C1NC2(CN(Cc3cccnc3)C2)Oc2ccccc21 | inactive |
| Cn1nc(-c2cccs2)cc1[C@H]1CN2CC[C@H]1C[C@@H]2COC(=O)Nc1ccccc1 | active: 35.5 µM |
| O=C(c1ccoc1)N1CC(CO)C2(CCNCC2)C1 (stereo not given) | inactive |
| Cn1ccc2ccc(C(=O)N3CCC(C#N)(c4ccccc4)CC3)cc21 | inconclusive: 50.1 µM [inhibitor, partial curve] |
| Cn1nc(C2CCCCC2)cc1[C@H]1CN2CC[C@H]1C[C@@H]2CNC(=O)Nc1cccc(C#N)c1 | inconclusive: 79.4 µM [inhibitor, partial curve] |
| O=C(c1ccc(C(F)(F)F)cc1)N1CCC(C(=O)O)(c2ccccc2)CC1 | inactive |
| COc1cc2c(cc1OCc1ccccc1)NC(=O)C21CCN(Cc2cccc(O)c2)CC1 | active: 22.4 µM |
| C#C[C@H]1CN2CC[C@H]1C[C@@H]2CNC(=O)CC(C)(C)CC(=O)O | inactive |
| CN1CCNc2cc(Nc3ccc(F)c(Cl)c3)ncc2C1 | active: 50.1 µM |
| CC(C)NC(=O)NC[C@H]1C[C@@H]2CCN1C[C@@H]2c1cc(-c2ccccc2)nn1C | inactive |
| Cn1nc(C2CCCC2)cc1[C@H]1CN2CC[C@H]1C[C@@H]2CNC(=O)c1ccc2c(c1)OCO2 | inconclusive: 79.4 µM [inhibitor, partial curve, poor fit] |
| OCC1CN(C2CCC2)CC12CCNCC2 (stereo not given) | inactive |
| CN(C)[C@@H]1CN(C(=O)Cc2ccc(F)cc2)C[C@H]1CO | inactive |
| COc1cc2c(cc1OCC1CC1)NC(=O)C21CCN(c2nc(C)cnc2C)CC1 | inconclusive: 31.6 µM [inhibitor, partial curve, poor fit] |
| CC(C)N1CC2CCC(C1)N2S(C)(=O)=O | inactive |
| COc1ccc(-c2cc([C@H]3CN4CC[C@H]3C[C@@H]4CN)nc(C)n2)cc1OC | inconclusive: 126 µM [inhibitor, single point] |
| CN1CCN(C[C@H]2CN3CC[C@H]2C[C@@H]3CNC(=O)Nc2ccccc2)CC1 | inconclusive: 126 µM [inhibitor, single point] |
| Cn1nc(-c2ccc(F)cc2)cc1[C@H]1CN2CC[C@H]1C[C@@H]2CNC(=O)c1cccs1 | active: 56.2 µM |
| Cn1nc(-c2ccc3ccccc3c2)cc1[C@H]1CN2CC[C@H]1C[C@@H]2CNC(=O)NCc1ccccc1 | active: 17.8 µM |
| O=S(=O)(NC[C@H]1C[C@@H]2CCN1C[C@@H]2CN1CCc2ccccc21)c1ccccc1 | active: 56.2 µM |

| SMILES | Potency |
| --- | --- |
| COc1cc2c(cc1OCc1ccncc1)NC(=O)C21CCN(c2ccccn2)CC1 | inconclusive: 79.4 µM [inhibitor, partial curve, poor fit] |
| O=C(c1ccn[nH]1)N1[C@H]2CC[C@@H]1c1cnc(-c3ccccc3)nc1C2 | inactive |
| COc1ccc(C(=O)NC[C@H]2C[C@@H]3CCN2C[C@@H]3c2cc(-c3ccccc3)nn2C)cc1 | active: 89.1 µM |
| CCCNC(=O)OC[C@H]1C[C@@H]2CCN1C[C@@H]2c1cc(-c2ccc(OC)cc2)nn1C | inconclusive: 100 µM [inhibitor, partial curve, poor fit] |
| Cn1cc(CN2CCN(C(=O)COc3ccc(F)cc3)CC2)ccc1=O | inactive |
| CCOC(=O)[C@H]1CN(S(=O)(=O)c2ccccc2)[C@]2(C)C(=O)N(CC(=O)N(C)C)c3ccccc3[C@H]12 | inconclusive: 31.6 µM [inhibitor, partial curve, poor fit] |
| Cc1nc(-c2cccs2)cc([C@H]2CN3CC[C@H]2C[C@@H]3CNC(=O)Nc2cccc(C(F)(F)F)c2)n1 | active: 25.1 µM |
| CCOC(=O)[C@H]1CN(C(=O)c2cc(C)oc2C)[C@]2(C)C(=O)N(C)c3ccccc3[C@H]12 | inconclusive: 35.5 µM [inhibitor, single point] |
| Cc1ccc(C(=O)N2CCC3(CC2)c2nccn2-c2ccccc2CN3CC(C)C)cc1F | active: 35.5 µM |
| Cc1nc(-c2ccco2)cc([C@H]2CN3CC[C@H]2C[C@@H]3CNC(=O)C2CCC2)n1 | inconclusive: 126 µM [inhibitor, partial curve, poor fit] |
| COc1ccccc1-c1cc([C@H]2CN3CC[C@H]2C[C@@H]3CNS(=O)(=O)c2cccs2)n(C)n1 | inconclusive: 44.7 µM [inhibitor, partial curve, poor fit] |
| COc1cc2c(cc1OCC1CC1)NC(=O)C21CCN(c2cc(NC3CC3)ncn2)CC1 | active: 25.1 µM |
| CC(=O)N1CCCC2(CC(c3cccnc3)=NO2)C1 (stereo not given) | inactive |
| C=C[C@H]1CN2CC[C@H]1C[C@@H]2CNC(=O)c1ccc2c(c1)OCO2 | inconclusive: 126 µM [inhibitor, single point] |
| O=C1NCc2ccccc2CC12CCCN(Cc1ccccn1)C2 (stereo not given) | inactive |
| CCOC(=O)[C@H]1CN(C(=O)/C=C/c2ccccc2)[C@]2(C)C(=O)N(CC3CC3)c3ccccc3[C@H]12 | inconclusive: 28.2 µM [inhibitor, partial curve] |
| O=C1N(Cc2ccccn2)C[C@H]2CN(Cc3nccs3)CCN12 | inactive |
| COC(=O)c1sccc1NC(=O)N1[C@H]2CC[C@@H]1c1cncnc1C2 | inactive |
| N#Cc1ccccc1S(=O)(=O)N1C[C@@H]2C[C@H](C1)c1c(-c3ccccc3F)ccc(=O)n1C2 | inactive |
| CN(C)c1ccc(C(=O)NC[C@H]2C[C@@H]3CCN2C[C@@H]3c2cc(C3CCCCC3)nn2C)cc1 | inconclusive: 44.7 µM [inhibitor, partial curve, poor fit] |
| COc1ccc(NC(=O)N2[C@H]3CC[C@@H]2c2cncnc2C3)cc1OC | inactive |
| O=C1NCc2ccccc2CC12CCCN2Cc1ccnc(Cl)c1 (stereo not given) | inconclusive: 50.1 µM [inhibitor, partial curve, poor fit] |
